Laboratory results from the antibiotic and cytotoxicity screens of Wong et al. (2023).
The list shows a part of the results.

The molecules below were run on HepG2 (assay: cytotoxicity call (relative viability < 0.9)). Details: 10 µM.
In the case of Cc1ccc(-c2ccc3c(c2)O[C@H](CN(C)C(=O)Nc2ccc(C(F)(F)F)cc2)[C@H](C)CN([C@H](C)CO)S3(=O)=O)cc1, the cytotoxicity call is reported as “inactive”.
In the case of CC(C)NC(=O)Nc1ccc2c(c1)C(=O)N([C@@H](C)CO)C[C@H](C)[C@H](CN(C)C(=O)Nc1ccc(F)cc1)OCCCC[C@@H](C)O2, the cytotoxicity call is reported as “inactive”.
With CN(Cn1[nH]c(=O)ccc1=O)c1ccccc1 the cytotoxicity call was “inactive”.
With C[C@@H]1CN([C@H](C)CO)C(=O)Cc2cc(NC(=O)Cn3cnnn3)ccc2O[C@H]1CN(C)C(=O)Nc1ccccc1 the cytotoxicity call was “inactive”.
CCC=C(C(=O)NC1C(=O)N2C(C(=O)OCOC(=O)C(C)(C)C)=C(COC(N)=O)CSC12)c1csc(N)n1.Cl (stereo not given) was tested, and the cytotoxicity call was “inactive”.
Cc1noc(C)c1NC(=O)Nc1cccc2c1O[C@@H](CN(C)S(C)(=O)=O)[C@H](C)CN([C@H](C)CO)C2=O was tested, and the cytotoxicity call was “inactive”.
For COc1ccc(NC(=O)Nc2ccc3c(c2)C(=O)N([C@@H](C)CO)C[C@H](C)[C@@H](CN(C)Cc2ccc(C(F)(F)F)cc2)OCCCC[C@H](C)O3)cc1, the cytotoxicity call was “inactive”.
For CCCCNC(=O)N1C[C@@H]2[C@H](CN)[C@@H]2C1, the cytotoxicity call was “inactive”.
With NS(=O)(=O)c1ccc(NC(=O)[C@H]2CCCNC2=O)cc1 the cytotoxicity call was “inactive”.
With C[C@H]1CCCCO[C@@H](CN(C)C(=O)CCC(F)(F)F)[C@@H](C)CN([C@@H](C)CO)C(=O)c2cc(NC(=O)c3ccccc3)ccc2O1 the cytotoxicity call was “inactive”.
For CC(C)(Sc1ccc(CCN(CCCCC2CCCCC2)C(=O)NC2CCCCC2)cc1)C(=O)O, the cytotoxicity call was “inactive”.
CCCC(=O)Nc1ccc2c(c1)C(=O)N(C)C[C@@H](OC)[C@H](C)CN(S(=O)(=O)c1cn(C)cn1)[C@@H](C)CO2 was tested, and the cytotoxicity call was “inactive”.
With C[C@H](CO)N1C[C@H](C)[C@H](CN(C)Cc2ccc3c(c2)OCO3)Oc2ncc(Br)cc2C1=O the cytotoxicity call was “inactive”.
C[C@H]1CN([C@@H](C)CO)C(=O)c2cccc(NC(=O)C3CCOCC3)c2O[C@H]1CN(C)S(=O)(=O)c1ccc(F)cc1 was tested, and the cytotoxicity call was “inactive”.
In the case of C[C@@H]1CCCCO[C@H](CN(C)S(=O)(=O)c2cn(C)cn2)[C@H](C)CN([C@@H](C)CO)C(=O)c2cc(NC(=O)Nc3cccc4ccccc34)ccc2O1, the cytotoxicity call is reported as “inactive”.
For COc1ccc([Si](C)(C)[C@@H]2[C@@H](CC(=O)N3Cc4ccccc4C[C@H]3CO)O[C@]3(C(=O)N(Cc4cccc(N5C(=O)c6cccc7cccc5c67)c4)c4ccccc43)[C@H]2C)cc1, the cytotoxicity call was “inactive”.
For COc1ccc(S(=O)(=O)N(C)C[C@H]2Oc3c(NC(=O)c4cc(C)nn4C)cccc3C(=O)N([C@@H](C)CO)C[C@H]2C)cc1, the cytotoxicity call was “inactive”.
COc1ccc(NC(=O)Nc2ccc3c(c2)C(=O)N([C@@H](C)CO)C[C@@H](C)[C@H](CN(C)S(=O)(=O)c2ccccc2)OCCCC[C@H](C)O3)cc1 was tested, and the cytotoxicity call was “inactive”.
For COCC(=O)Nc1ccc2c(c1)C(=O)N(C)C[C@@H](OC)[C@@H](C)CN(C(=O)Cc1ccccn1)[C@@H](C)CO2, the cytotoxicity call was “inactive”.
With CC(C)(C)OC(=O)CC[C@@]12N=C(c3ccc(OCCCO)cc3)O[C@@H]1c1ccccc1CN(Cc1ccccc1)C2=O the cytotoxicity call was “active”.
With NC(=O)c1ccc(CN2CCOCC2)cc1 the cytotoxicity call was “inactive”.
In the case of O=C(N[C@@H]1CC[C@@H](CC(=O)N2CCOCC2)O[C@@H]1CO)c1ccc2c(c1)OCO2, the cytotoxicity call is reported as “inactive”.
For CO[C@H]1CN(C)C(=O)c2cc(NC(=O)NC(C)C)ccc2OC[C@H](C)N(Cc2ccc(-c3ccccn3)cc2)C[C@@H]1C, the cytotoxicity call was “active”.
For O=C(COc1ccccc1)N1CCNC1=O, the cytotoxicity call was “inactive”.
COc1ccc(S(=O)(=O)N(C)C[C@@H]2Oc3ccc(NC(=O)C4CC4)cc3CC(=O)N([C@H](C)CO)C[C@H]2C)cc1 was tested, and the cytotoxicity call was “inactive”.
With COc1ccc(NC(=O)Nc2ccc3c(c2)CC(=O)N([C@H](C)CO)C[C@@H](C)[C@H](CN(C)S(C)(=O)=O)O3)cc1 the cytotoxicity call was “inactive”.
COc1ccc(CN(C)C[C@H]2OCCCC[C@H](C)Oc3ccc(NC(=O)NC(C)C)cc3C(=O)N([C@H](C)CO)C[C@H]2C)cc1 was tested, and the cytotoxicity call was “inactive”.
CC(C)NC(=O)N(C)C[C@@H]1Oc2ccc(NC(=O)Cc3ccccc3)cc2C(=O)N([C@@H](C)CO)C[C@@H]1C was tested, and the cytotoxicity call was “inactive”.
In the case of C[C@H](CO)N1C[C@H](C)[C@H](CN(C)C(=O)Nc2ccc(C(F)(F)F)cc2)Oc2ccc(NC(=O)Nc3cccc4ccccc34)cc2CC1=O, the cytotoxicity call is reported as “inactive”.
C[C@@H]1CO[C@]2(O[C@H]3C[C@H]4[C@H]5C[C@H](O[C@H]6O[C@@H](C)[C@@H](O)[C@@H](O[C@@H]7O[C@@H](C)[C@H](O)[C@@H](O)[C@H]7O)[C@@H]6O)[C@H]6C[C@@H](O)CC[C@]6(C)[C@@H]5CC[C@]4(C)[C@H]3[C@@H]2C)[C@@H](O)C1 was tested, and the cytotoxicity call was “inactive”.
In the case of C[C@H]1CN([C@@H](C)CO)S(=O)(=O)c2ccc(C#CC3CC3)cc2O[C@H]1CN(C)Cc1cccc(F)c1, the cytotoxicity call is reported as “inactive”.
In the case of CCS(=O)(=O)Nc1ccc2c(c1)C(=O)N(C)[C@H]1CC[C@H](CC(=O)Nc3ccccc3C)O[C@@H]1CO2, the cytotoxicity call is reported as “inactive”.
C[C@@H]1CCCCO[C@@H](CN(C)Cc2ccc3c(c2)OCO3)[C@@H](C)CN([C@@H](C)CO)C(=O)c2cc(NC(=O)Nc3ccccc3)ccc2O1 was tested, and the cytotoxicity call was “active”.
In the case of C[C@H]1CN([C@@H](C)CO)C(=O)c2cc(C#Cc3ccccc3F)cnc2O[C@@H]1CN(C)S(=O)(=O)c1ccccc1, the cytotoxicity call is reported as “inactive”.
For COc1ccc(S(=O)(=O)N[C@H]2C=C[C@@H](CC(=O)NCCc3ccncc3)O[C@H]2CO)cc1, the cytotoxicity call was “inactive”.
With CCCN1C(C)=C(C(=O)OC)[C@@H](c2cccc([N+](=O)[O-])c2)C(C(=O)ON2CCC(c3ccccc3)(c3ccccc3)CC2)=C1C the cytotoxicity call was “active”.
Cc1cc(C(=O)Nc2cccc3c2O[C@@H](CN(C)S(=O)(=O)c2c(C)noc2C)[C@@H](C)CN([C@H](C)CO)C3=O)n(C)n1 was tested, and the cytotoxicity call was “inactive”.
With CN(C)C(=O)c1cccc(-c2ccc3n(c2=O)C[C@H]2[C@H](CO)[C@@H](C(=O)NCC4CC4)N[C@@H]32)c1 the cytotoxicity call was “inactive”.
In the case of CC(C)NC(=O)N(C)C[C@@H]1Oc2ccc(NC(=O)c3ccncc3)cc2CC(=O)N([C@H](C)CO)C[C@@H]1C, the cytotoxicity call is reported as “inactive”.
With NCC(=O)N1C[C@H](NC(=O)c2ccccc2)C[C@H]1C(=O)O the cytotoxicity call was “inactive”.
